From paper PMC4336329 (PLoS ONE, 2015) come the findings set out here.

About 2,200 (0.71%) of roughly 310,000 compounds showed an effect of 50% or more. Effects have a minus sign here. Some of the results follow.

Sequence of human ether-à-go-go-related gene (hERG) potassium channel (Q12809 whole entry, looked up): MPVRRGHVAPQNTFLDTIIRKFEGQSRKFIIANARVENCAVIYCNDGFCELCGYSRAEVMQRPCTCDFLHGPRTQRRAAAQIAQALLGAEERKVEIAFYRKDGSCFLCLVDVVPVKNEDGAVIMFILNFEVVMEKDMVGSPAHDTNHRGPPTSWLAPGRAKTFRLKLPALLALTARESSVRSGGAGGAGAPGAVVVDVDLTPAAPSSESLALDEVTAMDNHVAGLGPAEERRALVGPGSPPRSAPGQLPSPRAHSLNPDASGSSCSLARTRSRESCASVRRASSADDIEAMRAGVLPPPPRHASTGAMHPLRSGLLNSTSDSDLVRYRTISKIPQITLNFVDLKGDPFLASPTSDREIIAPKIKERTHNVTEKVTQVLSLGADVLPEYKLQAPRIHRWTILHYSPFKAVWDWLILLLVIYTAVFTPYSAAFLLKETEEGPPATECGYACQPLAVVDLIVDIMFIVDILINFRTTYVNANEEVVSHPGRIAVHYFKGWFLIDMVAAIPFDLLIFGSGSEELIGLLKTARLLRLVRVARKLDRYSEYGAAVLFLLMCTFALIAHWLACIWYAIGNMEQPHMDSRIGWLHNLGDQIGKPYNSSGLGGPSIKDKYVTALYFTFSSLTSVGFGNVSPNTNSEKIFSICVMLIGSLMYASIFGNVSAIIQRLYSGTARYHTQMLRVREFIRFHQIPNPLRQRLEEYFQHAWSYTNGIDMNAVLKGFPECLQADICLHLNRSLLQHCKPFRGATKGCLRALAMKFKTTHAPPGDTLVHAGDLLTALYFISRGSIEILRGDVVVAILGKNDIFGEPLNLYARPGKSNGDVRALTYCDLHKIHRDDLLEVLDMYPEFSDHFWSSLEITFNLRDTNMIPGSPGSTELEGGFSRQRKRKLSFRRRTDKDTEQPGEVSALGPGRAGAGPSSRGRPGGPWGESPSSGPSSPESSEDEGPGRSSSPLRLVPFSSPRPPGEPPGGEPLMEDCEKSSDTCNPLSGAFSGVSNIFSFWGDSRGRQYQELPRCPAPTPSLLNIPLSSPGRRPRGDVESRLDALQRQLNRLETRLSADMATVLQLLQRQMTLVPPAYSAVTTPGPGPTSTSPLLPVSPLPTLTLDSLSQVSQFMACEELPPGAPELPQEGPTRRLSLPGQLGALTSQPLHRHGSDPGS

This test has as its target human ether-à-go-go-related gene (hERG) potassium channel (human, UniProt Q12809). The test is described as follows: primary screen, population patch clamp on CHO cells stably expressing hERG.
Regarding `O=C(/C=C/c1ccco1)Nc1ccccc1N1CCCC1`, the “hERG current change (%, negative = inhibition) at 1uM” value is -5.29%.
To `COc1ccccc1N(CC(=O)NC1CCCCC1)S(=O)(=O)c1ccccc1` belongs 15.3%; to `O=C1c2ccc([N+](=O)[O-])cc2C(=O)N1c1ccc([N+](=O)[O-])cn1`, 12.4%; to `O=C(Nc1nc2ccc(F)cc2s1)Oc1ccccc1`, 18.8%.
To `O=C(CC1C(=O)NCCN1Cc1cccc(F)c1)NC1CCCCCC1` (stereo not shown) belongs 14%; to `O=C(Nc1ccccc1)C1CCCN(S(=O)(=O)c2ccc(-n3cnnn3)cc2)C1` (stereo not shown), -8.45%.
In the case of `CCOC(=O)c1c(C)n(C)c2cc(CN(C)C)c(O)c(S(=O)(=O)c3ccccc3)c12.Cl` it was 2.33%; in that of `O=C(OCC1OC2OC3(CCCCC3)OC2C2OC3(CCCCC3)OC12)c1ccccc1` (stereo not shown), 11.5%; in that of `Cc1nc(N2CCOCC2)nc2c1CCCC2`, 0.169%.
Turning to `C=CCNC(=O)COC(=O)/C=C/c1cccs1`, the “hERG current change (%, negative = inhibition) at 1uM” value is on record as 14.7%.
In the case of `O=C(c1cccs1)N(c1ccc(Br)cc1)C1C=CS(=O)(=O)C1` (stereo not shown) it was -5.97%; in that of `CCCNCC1C(Oc2ccc(Cl)cc2Cl)C(=O)N1c1cccc(C)c1C.Cl` (stereo not shown), 8.41%; in that of `CN(C)c1nc(N)nc(CSc2nnnn2-c2ccc(C(=O)O)cc2)n1`, -0.858%.
To `O=C(NCCN1CCCC(O)C1)c1cc(COc2c(F)cccc2F)on1` (stereo not shown) belongs 10.4%; to `CCOC(=O)C1=C(C)N(CCCC(=O)O)C(=O)NC1c1ccccc1` (stereo not shown), 5.24%.
In the case of `Cc1cc(C)c(S(=O)(=O)/N=C2\C=CC(=O)C(Cl)=C2)c(C)c1` it was 10.9%; in that of `CCOc1c(Cl)cnn(-c2ccc(C)cc2)c1=O`, 8.64%; in that of `CN(C(=O)CSc1nnc(-c2ccccc2)c(-c2ccccc2)n1)C1CCS(=O)(=O)C1` (stereo not shown), -2.13%.
As for `O=C(CSc1nnc(NC(=O)c2ccc(F)cc2)s1)NC1CC1`, the “hERG current change (%, negative = inhibition) at 1uM” value was determined as 14.5%.
To `Cc1nc2cc(-c3ccccc3)nn2c(C)c1CCC(=O)NCc1ccco1` belongs -2.36%; to `S=C(NCc1ccco1)NCc1ccccc1Cl`, 16.2%.
As for `CC1(C)CC(=O)c2cn3c(nc2C1)nc1ccccc13`, the “hERG current change (%, negative = inhibition) at 1uM” value is -31.2%.
`O=C(O)/C=C\c1cccc(-n2cnnn2)c1`: the “hERG current change (%, negative = inhibition) at 1uM” value was determined as 7.75%.
For the compound `Cc1cc(C)n(-c2ccc(NC(=O)C3CCN(Cc4ccccn4)CC3)cc2)n1`, the “hERG current change (%, negative = inhibition) at 1uM” value was 13%.
To `NC(=S)N/N=C/c1coc2ccc(Cl)cc2c1=O` belongs 10.1%; to `Cc1ccc(OCc2cc(C(=O)NC3CCOC3)no2)cc1C` (stereo not shown), 10%; to `O=C(COc1ccc(S(=O)(=O)N2CCCCC2)cc1)N1CCCC1`, 8.74%.
In the case of `COc1ccc(C(=O)Nc2ccc3oc(Cc4ccc(Cl)cc4)nc3c2)cc1OC` it was 11.8%; in that of `COCOc1ccc(/C=C/C(=O)c2c(OCOC)cc(OCOC)c(CC=C(C)C)c2O)cc1OCOC`, 7.36%; in that of `CN(C)c1cccc(C(=O)NCCCn2ccc3ccccc32)c1`, 17.7%.
As for `CC(C)N1C(=O)CCC1C(=O)N1CCCc2ccccc21` (stereo not shown), the “hERG current change (%, negative = inhibition) at 1uM” value was -2.46%.
In the case of `CCc1ccccc1S(=O)(=O)Cc1ccc(C(=O)NC(C)C)o1` it was 5.53%; in that of `CN(C(=O)COC(=O)c1cncc(Br)c1)C1CCS(=O)(=O)C1` (stereo not shown), 4.49%.
For the compound `Cc1ccc(C(=O)Nc2ccccc2OC(F)F)cc1`, the “hERG current change (%, negative = inhibition) at 1uM” value was 4.15%.
For `COc1ccc(CCNC(=O)c2cc(C3CC3)nc3c2cnn3C(C)C)cc1`, the “hERG current change (%, negative = inhibition) at 1uM” value was determined as 5%.
For the compound `O=c1[nH]c(=O)n(-c2ccc(Cl)cc2)c(O)c1C=Nc1ccc(S(=O)(=O)Nc2nccs2)cc1`, the “hERG current change (%, negative = inhibition) at 1uM” value is reported as 13.7%.
To `O=C(NCc1ccccc1)NC1CCCCC1` belongs 12.5%; to `COc1ccc(C2Nc3ccccc3C(=O)N2NC(C)=O)c(OC)c1` (stereo not shown), 15.4%; to `O=C(CNc1ccccc1)N/N=C/c1c(O)ccc2ccccc12`, 19.1%.
On to `Cc1ccc(SCCNC(=O)C(CO)(CO)CO)cc1`, for which the “hERG current change (%, negative = inhibition) at 1uM” value is 2.8%.
To `CC(C)n1nnnc1SCC(=O)c1c(N)n(C2CC2)c(=O)[nH]c1=O` belongs 12.3%.
For the compound `CC1CCc2[nH]c3ccc(C(=O)O)cc3c2C1` (stereo not shown), the “hERG current change (%, negative = inhibition) at 1uM” value was determined as 18.5%.
Regarding `CCN(CC)S(=O)(=O)c1ccc(Cl)c(C(=O)OC)c1`, the “hERG current change (%, negative = inhibition) at 1uM” value is listed as -4.62%.
As to `Cc1cc(C)[n+](-c2ccc(Oc3ccccc3)c(S(=O)(=O)[O-])c2)[nH]1`, the “hERG current change (%, negative = inhibition) at 1uM” value was 10.5%.
As to `O=S1(=O)CCOC[C@H](CC2CCCCC2)N1Cc1ccccc1Br`, the “hERG current change (%, negative = inhibition) at 1uM” value is listed as 9.71%.
To `CSc1ccc(C(=O)C2CCCN(C(=O)c3ccc(C)nc3)C2)cc1` (stereo not shown) belongs 8.09%.
